Data reported in the supplement of paper PMC4166925.
± gives the standard deviation of the averaged measurements. The full ranking holds about 33,000 sequences; the median of “E-score (dimensionless, -0.5 to 0.5)” is about -0.046, and the highest 2% start at about 0.36. The list shows a part of the results.

Tested on: T1, SpTbr T-box DNA-binding domain (GST fusion)
T1 sequence: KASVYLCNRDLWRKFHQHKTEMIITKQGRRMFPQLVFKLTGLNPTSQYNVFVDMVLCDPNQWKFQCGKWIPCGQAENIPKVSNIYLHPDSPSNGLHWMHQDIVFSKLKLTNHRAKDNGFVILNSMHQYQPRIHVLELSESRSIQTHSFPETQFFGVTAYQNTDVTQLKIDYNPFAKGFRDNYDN
Experiment: PBM E-score of 8-mer (E-score (dimensionless, -0.5 to 0.5)); Tbr is Tbrain of the sea star Patiria miniata (Pm) or the sea urchin Strongylocentrotus purpuratus (Sp); higher = stronger binding preference; most listed sequences are background and not binding sites
Conditions: the construct has about 5 more residues each side
In short: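 Primer extension turned Universal Agilent oligonucleotide arrays double-stranded. They were incubated with 200 nM protein in PBS (pH 7.5); the protein was a GST-fused Tbr T-box DNA-binding domain expressed in BL21 E. coli at 20 °C and purified on glutathione. Every ungapped 8-mer was scored from the scanned, quantified probe intensities, and the Universal PBM Analysis Suite gave each an enrichment E-score averaged over duplicate arrays.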

Sequence | PBM E-score of 8-mer
TGCCAAAA | 0.129 ± 0.026
CGTGGGAA | 0.231 ± 0.0057
GTATTAAC | 0.0557 ± 0.023
ACCTTGCT | 0.152 ± 0.0089
ATATGGAT | -0.138 ± 0.0045
TAGCGGAA | -0.051 ± 0.035
ATCCACTG | -0.196 ± 0.035
ACAGCTAG | 0.244 ± 0.012
CGGCACGC | 0.187 ± 0.049
GGGGATCA | -0.3299 ± 0.0015
CAAAGCAC | -0.00738 ± 0.091
CTGTCTTC | -0.0509 ± 0.029
ACTTCGGG | -0.00805 ± 0.072
AAAGTCCC | -0.0306 ± 0.019
ACACAGGG | 0.133 ± 0.061
GGGCTTGA | -0.094 ± 0.04
CCAATTGC | -0.15 ± 0.013
TGCTGTAA | -0.197 ± 0.039
AACCTGAA | -0.226 ± 0.048
CATGGCAA | -0.12 ± 0.052
GCCGAACA | 0.00409 ± 0.032
TTCAACAA | -0.165 ± 0.064

Sequence | PBM E-score of 8-mer
CCAACTAG | -0.176 ± 0.072
AAATTATT | -0.125 ± 0.041
CCCGAATA | -0.0738 ± 0.0011
AAGTAGAC | -0.137 ± 0.074
CATAGTGG | -0.0585 ± 0.064
AGAAGCAG | -0.161 ± 0.025
CTCTGGTA | -0.125 ± 0.065
AGCCGTGG | -0.249 ± 0.047
ACAAGGTG | 0.425 ± 0.0045
GACGAGGA | -0.0609 ± 0.011
TATCGCGA | 0.26495 ± 0.00011
ACCAACTG | 0.0105 ± 0.0016
AGATCGTC | -0.00255 ± 0.09
AGGCCGAA | -0.314 ± 0.04
GACATTAC | -0.0534 ± 0.08
GGCGATAA | 0.202 ± 0.02
CACATCCC | 0.273 ± 0.012
ATGATGAA | -0.154 ± 0.044
ATTTAGCC | -0.168 ± 0.033
CCATTTAC | 0.0148 ± 0.018
AAAGAGGT | 0.031 ± 0.086
ACCACTAT | 0.0787 ± 0.041

Sequence | PBM E-score of 8-mer
AAGGGATT | -0.186 ± 0.0062
ACTGAGGA | -0.0611 ± 0.02
ACCCAGCG | 0.0629 ± 0.022
AGCAGATA | -0.195 ± 0.043
CTTGCATA | -0.25065 ± 2.1e-05
ATTTTGAA | -0.17 ± 0.068
GACTCAAC | 0.0525 ± 0.05
ATTTACGG | -0.182 ± 0.046
GATACAAC | 0.165 ± 0.033
TGCATGAA | -0.0638 ± 0.0073
CCACTAAC | 0.243 ± 0.07
CACCGTCG | 0.146 ± 0.033
TATCAATA | -0.154 ± 0.08
AACCACAC | 0.301 ± 0.038
ATTGGAAA | -0.318 ± 0.042
AGTAAAAT | -0.276 ± 0.0066
GCCTAACA | 0.191 ± 0.035
CAATGCAA | -0.23 ± 0.025
GTACCTTA | -0.0975 ± 0.091
CGGAGACC | -0.167 ± 0.085
CTGACAGA | -0.0045 ± 0.057
CTATTAAG | -0.104 ± 0.077

Sequence | PBM E-score of 8-mer
AGCCGCCA | 0.0532 ± 0.054
TCACGGAA | 0.107 ± 0.02
AAGCATCC | -0.199 ± 0.0045
CGGGCTCA | -0.104 ± 0.096
GTGTTACA | 0.362 ± 0.02
GACGACAA | 0.182 ± 0.012
AAACGCTA | -0.0675 ± 0.065
AGGCGATA | 0.1413 ± 0.0011
GCCGTAGC | -0.321 ± 0.0047
CGTCAGAG | 0.0148 ± 0.088
GGGCCTAC | -0.273 ± 0.039
CACTGGCG | 0.162 ± 0.084
ATGTCCCG | -0.277 ± 0.061
GCACCACC | 0.164 ± 0.016
CCTACAAA | -0.136 ± 0.078
ACTGTGCT | 0.0323 ± 0.028
ACCCGAGA | 0.0223 ± 0.0071
AGACCCGG | -0.162 ± 0.0053
CGGTGAGA | 0.257 ± 0.012
CAATACAC | 0.146 ± 0.021
